Source: the supplement of paper PMC10126150
Values marked as one replicate rest on one cluster of the flow cell; about a third of the high ones do not repeat.

What follows are sequences tested on ATP (assay: switch fluorescence ratio, 500 uM ATP over buffer (Cy3 cluster intensity, sum of 5 cycles each) (fold (ratio)); higher = stronger signal-on switching upon ATP binding; sequences stand for … in TCGTCGGCAGCGTCAGATGTGTATAAGAGACAGTTTTTTTTTTTTTTTTTTTTTTTTT…TC). Settings: aptamer strand: ATP DNA aptamer (quencher-CACCTGGGGGAGTATTGCGGAGGAAGG + anchor), 100 nM annealed; ATP concentration: 500 uM; one replicate.
Procedure, shortened: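 Clusters carrying Cy3-labelled switching strands on a modified Illumina MiSeq flow-cell were annealed to 100 nM quencher-labelled ATP aptamer and imaged in selection buffer. They were imaged again after 15 min with 500 uM ATP at 22 °C, over five buffer/ATP cycles with NaOH stripping and re-annealing in between. For each cluster, the fluorescence ratio is the summed Cy3 intensity of the target cycles divided by that of the buffer cycles, averaged per switch-domain sequence. Clusters outside 100-1000 RFU were left out.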
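Note: ATP exposure 15 min at 22 °C before imaging.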

Row | Sequence | switch fluorescence ratio
1 | CATCGCTCGG | 1.01
2 | GATTTCATAT | 1.02
3 | GTACGGGGCG | 1.03
4 | AGAGTGGCTG | 0.993
5 | TCACGGAGGT | 1.01
6 | CGTAGGTTTC | 1.02
7 | AGGACGAAGG | 0.974
8 | CGCTAGTCCG | 0.973
9 | ACATCATAGT | 1.04
10 | TATTTCGGTC | 0.943
11 | CAAGTCAGC | 0.997
12 | TTATCCGGGC | 1.22
13 | TTGTGTACT | 0.996
14 | CGCAGCCGAG | 1.13
15 | CTCTAGATAA | 1.71
16 | GGAATGCGGA | 1.05
17 | ATCCTACGGG | 1.12
18 | TACAACGGCA | 1.04
19 | GATTTTGCCT | 0.98
20 | CGGGAAACTA | 1.01
21 | TGTTCCCTGG | 1.05
22 | AACAACAGCA | 1.03
23 | TAAAATTTGG | 0.965
24 | AGTCGGCTAA | 0.957
25 | TACCATTCCT | 1.42
26 | CCCCAACGTA | 1.1

Row | Sequence | switch fluorescence ratio
27 | TACAAGATCG | 1
28 | GGGGAGGGG | 0.968
29 | CCATGTGGTG | 1.08
30 | TGGCTGATAG | 0.954
31 | TGCAGTTCGG | 0.994
32 | CTATTGGGAA | 0.989
33 | TTTACATCG | 1.1
34 | CCAGGATTTA | 1.01
35 | CCATATTTCA | 1.03
36 | AACGTGTT | 0.995
37 | CATGGGGTCG | 0.983
38 | CGAGAGGGAT | 1.02
39 | ATAAGAACGG | 1.12
40 | CTAAGAGCCA | 0.964
41 | AGTGGGTAAC | 1.01
42 | ACCTAGAGTC | 1.1
43 | ACCTAGATTG | 1.03
44 | ACACTGTCGT | 1
45 | ACCGATGGGT | 1.03
46 | CCATCCCGTA | 1.14
47 | CTAAGTACTA | 1.29
48 | GGTTTCAGCG | 1.01
49 | TCCTTGTATA | 1.06
50 | GAGTGAACGA | 1.06
51 | AATCGAATCT | 1.06
52 | TTAAGCTCTT | 0.956

Row | Sequence | switch fluorescence ratio
53 | ACTTAGTGTC | 1.03
54 | TATGGTTCGA | 0.973
55 | CGAGGGGTAT | 2.54
56 | GCATCTGGAA | 1.12
57 | GTCAAGTGAG | 1.03
58 | ACCCGATTTT | 0.991
59 | TCTTGAAGAA | 0.937
60 | TCTACTGCTA | 1.42
61 | CATGCTCTCG | 1.01
62 | GACTCCTGCG | 1.07
63 | CAATATGGGC | 0.975
64 | AGAAGGATTT | 1.02
65 | GGGCGCGCTA | 0.98
66 | AAGAAAAATG | 1
67 | TTAAGCTACT | 1.13
68 | ACTGTCCAGC | 1.02
69 | GCGAGGACGC | 1.09
70 | AATTGGTTGG | 0.992
71 | CATTTTAAGA | 1.04
72 | CAATGAGAGG | 1.01
73 | ACGTTTTGCG | 0.98
74 | GAGTCACTA | 1.03
75 | GGAAGTATTT | 0.993
76 | TAGTAATGAC | 1.05
77 | TGACCCGCGC | 2.14
78 | TAAGGAGTT | 0.896

Row | Sequence | switch fluorescence ratio
79 | CATAGGCATG | 0.988
80 | CGTGGTCGCA | 0.995
81 | GCTGATCATT | 0.981
82 | GAAGCTTCTG | 0.977
83 | ATAAACGTAT | 1.06
84 | GTTACCATGG | 0.951
85 | CGGTGGGAAG | 1
86 | TGACTTGGTT | 1.07
87 | AGACTTGGTA | 0.948
88 | CCTGGGCGCA | 1.17
89 | TAGCTTGCGT | 0.982
90 | TTCTGGGGA | 0.963
91 | TATACCTGGT | 1.02
92 | CTTTTCCAGA | 1.01
93 | CAATCTCAGC | 1.01
94 | CCACATTGCG | 1.01
95 | TTTTGACA | 1.04
96 | TGGGGCCCAT | 1.08
97 | TAAGCGCTTG | 1.03
98 | GCTCTAGTAG | 1.01
99 | ATCGACAGCA | 1.12
100 | TCTTTGCCC | 0.992
101 | CGGTTACCTT | 0.991
102 | CATCACAGCG | 0.998
103 | TGCTACATTA | 1.04
104 | GAGCTTTTAT | 1.03

Row | Sequence | switch fluorescence ratio
105 | ATGACGTGT | 0.912
106 | GAAACGTGCG | 0.956
107 | AGCCGTGGTA | 0.911
108 | ATCGGAAAAC | 1.03
109 | AGGATGCGGC | 1.03
110 | TAGTTCTAGC | 0.972
111 | CACGTGCGAC | 1.12
112 | ATGTCGACCT | 1
113 | TCAATGGGAG | 0.974
114 | AGAAGTTAGC | 0.998
115 | GAATGTGAAT | 0.998
116 | TAATCTAGTT | 0.983
117 | ATGCCTGAA | 1.21
118 | TCATATTCAC | 1
119 | GGTATAGTTC | 0.995
120 | TTAATGGTCT | 1
121 | GTTTCGGTCG | 0.92
122 | GACTTCGGTA | 1.07
123 | TCTGAGACAT | 1.01
124 | TGTGGGGTGC | 0.967
125 | AGTCCCTATA | 1.04
126 | GGTCGACTTC | 1.02
127 | TAGTAGACCA | 0.984
128 | AACGTATGCT | 1.01
129 | TAGTCGACAG | 1
130 | ATACGCTAT | 1.53

Row | Sequence | switch fluorescence ratio
131 | TGAGGTGTTC | 0.968
132 | GCATACTTAT | 1.05
133 | CAAATCCGTG | 1.02
134 | TTAAGCATTC | 1.35
135 | AAGATCGGTT | 0.968
136 | CACACGCTTT | 1.17
137 | TAGCTCTTC | 0.958
138 | GGCAAAACGC | 1.02
139 | AGAATTGGCC | 1.02
140 | GGTCCCACTA | 1.01
141 | TGGATAACC | 1.07
142 | GCTAGGAGGG | 0.963
143 | AAGGTGGAAT | 1.26
144 | ACGGAACGCC | 1.09
145 | CAGCGGGGTC | 1.08
146 | TGAACGTAGG | 0.983
147 | ATCGCTGGCC | 1.02
148 | ATAACCTAGT | 0.974
149 | CAGGGGAATC | 0.975
150 | GCCTTGGCCG | 0.957
151 | CATAAAACCA | 1.04
152 | TTGTTTAGCA | 0.977
153 | AGACTTGGCC | 1.04
154 | AGCGTACTAA | 1.06
155 | AGCCCTCCGG | 1.21
156 | CTTGGAGAAT | 0.967

Row | Sequence | switch fluorescence ratio
157 | AGGGATCATC | 0.994
158 | TTAGACATGT | 0.985
159 | CCGGGACACA | 1.05
160 | AATGCCTAGT | 0.945
161 | TGTATCTACT | 1.01
162 | CGAATTGTAG | 0.989
163 | TTGGATAATC | 1
164 | GATGACTTAC | 1.23
165 | CACAATAGTC | 1.63
166 | TCTACTAGCG | 1.01
167 | TTGATATTAG | 0.996
168 | ATCAGTGAGT | 0.983
169 | TGTTGTGATA | 0.941
170 | TATATATTAG | 0.986
171 | ACATAAATAC | 1.38
172 | TGCAGCCCGG | 1.05
173 | CGTGGCAAGT | 1.04
174 | CGGAGAACTC | 1.09
175 | GCTTGCACGG | 0.971
176 | GACTTGCAGG | 1.06
177 | CGACATGTCC | 1.02
178 | GATATGATTG | 0.99
179 | GTGTCGAAGC | 0.989
180 | GCATACCGCC | 1.31
181 | GGATCCTTGA | 1.03
182 | AGTAACCGAA | 1.01

Row | Sequence | switch fluorescence ratio
183 | AAACACCCAC | 1.53
184 | TTTAGCCTAA | 0.94
185 | CGGCGGTTG | 0.955
186 | TTCGCTACAG | 1.07
187 | CATACTCTCG | 1.07
188 | AGGTTCCTC | 1.07
189 | GGATATCCGT | 1.03
190 | GAGTAGCGTC | 0.977
191 | TGCGGCCCTG | 1
192 | CGGTATTCAA | 1
193 | CGCCGGACT | 1.04
194 | TAGGGACCGT | 1.01
195 | AAGGTCGGAT | 0.99
196 | GAAGAACCGC | 1.15
197 | GGGGCGCGAT | 1.03
198 | ATACCGGCCG | 0.985
199 | ACATACACCT | 1.33
200 | TTCAGGCAAT | 1.03
201 | TATAGTAAAT | 0.948
